Source: PubChem BioAssay AID887 (National Center for Advancing Translational Sciences (NCATS), 2007)
In all, about 74,000 compounds went through this assay and about 1,100 (1.5%) were called active. The inconclusive results got no clear call from the source; some entries with a clear call stand among them for comparison. Calls come from the whole dose curve; as a rule, active = well fitted inhibition curve with a large enough effect; inconclusive = small, poorly fitted or top-dose-only effect; inactive = no such curve, though single readings can be large or run the other way. Potencies of inconclusive entries are left out as doubtful fits.

target: Polyunsaturated fatty acid lipoxygenase ALOX15 (Homo sapiens) (UniProt P16050); test: qHTS Assay for Inhibitors of 15-hLO (15-human lipoxygenase); details: purified 15hLO-1, xylenol orange hydroperoxide absorbance; series mostly up to 57.1 µM; note: nearly all actives have a fitted effect of over 55% in size
Chain of UniProt P16050 (P16050 whole entry, looked up): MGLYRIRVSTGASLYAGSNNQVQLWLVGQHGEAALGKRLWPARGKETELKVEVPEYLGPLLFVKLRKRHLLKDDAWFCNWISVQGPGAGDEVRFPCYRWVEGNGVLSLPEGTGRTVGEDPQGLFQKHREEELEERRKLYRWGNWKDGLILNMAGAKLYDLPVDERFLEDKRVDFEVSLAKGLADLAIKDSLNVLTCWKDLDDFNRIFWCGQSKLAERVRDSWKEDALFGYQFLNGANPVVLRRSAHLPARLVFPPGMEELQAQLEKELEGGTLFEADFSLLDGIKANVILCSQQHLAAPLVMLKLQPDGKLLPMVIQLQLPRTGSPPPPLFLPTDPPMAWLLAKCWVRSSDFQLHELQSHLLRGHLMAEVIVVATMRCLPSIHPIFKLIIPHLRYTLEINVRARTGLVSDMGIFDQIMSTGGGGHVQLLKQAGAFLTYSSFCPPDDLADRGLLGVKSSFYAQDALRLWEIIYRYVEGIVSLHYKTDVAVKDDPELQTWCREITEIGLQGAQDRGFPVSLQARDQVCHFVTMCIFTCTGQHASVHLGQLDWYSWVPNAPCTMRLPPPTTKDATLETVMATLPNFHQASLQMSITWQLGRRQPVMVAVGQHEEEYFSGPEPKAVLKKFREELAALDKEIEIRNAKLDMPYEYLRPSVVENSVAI
Method in brief: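 Purified human 15hLO-1 (40 nM) in 25 mM Hepes pH 7.5, 0.01% Triton X-100, preincubated 15 min RT with compound, then 50 uM arachidonic acid for 6 min. Hydroperoxide read by ferrous/xylenol orange, 30 min; 573/405 nm absorbance ratio gave progress.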
Potency is the fitted concentration of half-maximal effect; tags give direction and shape of the fitted curve.

SMILES	Potency
CCOc1cccc(-c2cc(C(=O)N/N=C/c3cccc(OC)c3O)[nH]n2)c1	inactive
NC(=O)CNC(=O)C1CCCc2c1[nH]c1ccc(Cl)cc21 (centres undefined)	inconclusive [inhibitor, single point]
O=C(O)c1ccc2cc(-c3ccc(O)c(C45CC6CC(CC(C6)C4)C5)c3)ccc2c1	inconclusive [inhibitor, partial curve]
CC(=O)c1ccc(NC(=O)c2ccc(S(=O)(=O)N3CCCC3)cc2)cc1	inactive
COC(=O)C1=C(C)NC(C)=C(C(=O)OC)C1c1cn(-c2ccccc2)nc1-c1ccco1	inconclusive [inhibitor, single point]
CCOc1ccc(NC(=O)c2cccnc2C(=O)O)cc1	inactive
Nc1ncnc2c1nc(Br)n2[C@H]1O[C@H]2COP(=O)(O)O[C@H]2[C@@H]1O	inconclusive [inhibitor, single point]
CCCCC(=O)OC1CCC2C3CCc4cc(O)ccc4C3CC[C@]12C (some centres undefined)	inconclusive [inhibitor, single point]
CCN1CC=C2C(C1)C(c1ccc(Cl)s1)C(C#N)=C(N)C2(C#N)C#N (centres undefined)	inconclusive [inhibitor, single point]
COCCn1c(=O)c(-c2ccccc2)nc2cnc(N(C)C)nc21	inconclusive [inhibitor, single point]
O=C(CN1C(=O)c2ccccc2C1=O)Nc1ccc(-c2nc3ccccc3o2)cc1	inconclusive [inhibitor, partial curve]
O=C1NCCCC2c3c(cc(Br)c(O)c3Br)OC12N1CCOCC1 (centres undefined)	inactive
COCCn1nnnc1CN(CCc1ccc(OC)c(OC)c1)Cc1cc2ccc(C)cc2[nH]c1=O	inconclusive [inhibitor, full curve]
CCOCCn1c(N2CCN(c3ccc(OC)cc3)CC2)nc2c1c(=O)[nH]c(=O)n2C	inconclusive [inhibitor, full curve]
O=C(Cc1ccccc1)N1CCC(c2nc(-c3ccc(F)cc3)no2)CC1	inconclusive [inhibitor, partial curve]
Cc1nc2ccc(Br)cn2c(=O)c1Cl	inactive
CC(C)C(c1nnnn1Cc1ccco1)N1CCN(C2CCCC2)CC1 (centres undefined)	inconclusive [inhibitor, full curve, poor fit]
CNc1nc(-c2ccccc2C)nc2ccccc12	inconclusive [inhibitor, partial curve]
Cc1ccc2[nH]c(=O)c(CN(CCN3CCOCC3)C(=O)Nc3ccc(F)cc3)cc2c1	inconclusive [inhibitor, single point]
Fc1cccc(-n2c(-c3ccco3)nc3nc4ccccc4nc32)c1	inconclusive [inhibitor, partial curve]
O=c1[nH]c2cc3c(cc2cc1C(c1nnnn1Cc1ccccc1)N1CCN2CCCC2C1)OCCO3 (centres undefined)	inconclusive [inhibitor, single point]
CCOc1cccc(-c2nnc3n2N=C(c2cc(OC)ccc2OC)CS3)c1	inconclusive [inhibitor, single point]
O=C1NC(=S)S/C1=C1\Sc2ccccc2N1CCCS(=O)(=O)O	inconclusive [inhibitor, partial curve]
COc1cc2ncnc(Nc3cccc(Cl)c3)c2cc1OC	inconclusive [inhibitor, single point]
COc1cc(C2c3c(n[nH]c3C)C(=O)N2c2ccc(C)cc2)ccc1O (centres undefined)	inconclusive [inhibitor, single point]

SMILES	Potency
Cc1cccc(-n2nnc(C(=O)N3CCc4ccccc4C3)c2N)c1	active: 25.1 µM
CNCC[C@H](Oc1ccccc1C)c1ccccc1	inconclusive [inhibitor, single point]
COc1ccc(-c2noc(N(C)CC(=O)Nc3cccc(C(F)(F)F)c3)n2)cc1	inconclusive [inhibitor, partial curve]
Cc1cc2c(=O)n(Cc3ccco3)c(SCC(=O)N3CCCc4ccccc43)nc2s1	inactive
CC(=O)Oc1cc(-c2coc3cc(OC(C)=O)c(OC(C)=O)c(OC(C)=O)c3c2=O)cc(OC(C)=O)c1OC(C)=O	active: 15.8 µM
CC1(C)OC2CC3C4CC(F)C5=CC(=O)CC[C@@]5(C)C4C(O)C[C@@]3(C)[C@]2(C(=O)CO)O1 (some centres undefined)	inactive
CC(=O)c1ccc(NC(=O)C2CCN(S(=O)(=O)c3cccc4cccnc34)CC2)cc1	inactive
O=C(NO)c1ccc(OC(F)F)cc1	inconclusive [inhibitor, partial curve]
COc1ncc2nc(-c3cc(F)cc(F)c3)c(=O)n(Cc3cccs3)c2n1	inconclusive [inhibitor, partial curve]
COc1ccc(S(=O)(=O)c2c(N)n(Cc3ccco3)c3nc4ccccc4nc23)cc1	active: 20 µM
O=S(=O)(c1ccccc1)N1CCC[C@@]2(CCN(c3ccncc3)C2)C1	inactive
N#C/C(=C\c1ccc(O)c(O)c1)C(=O)NCCCc1ccccc1	active: 2.51 µM
CCCCNC(=O)Nc1ccc(Br)cn1	inactive
O=c1cc(-c2ccc(O)c(O)c2)oc2ccccc12	active: 1.58 µM
O=C(NCc1cccs1)c1cc2ccccc2o1	inactive
COc1cccc(NC(=O)NCCCN2CCN(c3ccc(F)cc3)CC2)c1	inconclusive [inhibitor, single point]
COc1ccc2c(c1OC)C(=O)N1C(C(=O)O)Cc3c([nH]c4ccccc34)C21 (centres undefined)	inactive
COc1ccccc1C(=O)n1nc(-c2ccc(Cl)cc2)nc1N	active: 12.6 µM
COc1ccc(-c2nnc(CSc3nc4ccccc4c(=O)n3C)o2)cc1OC	inactive
CCOC(=O)C1CSC(Cc2ccc(OCc3ccc([N+](=O)[O-])cc3)cc2)N1 (centres undefined)	inconclusive [inhibitor, single point]
CC(C)Oc1ccc(C2/C(=C(/O)c3ccc(F)cc3)C(=O)C(=O)N2CCCN(C)C)cc1 (centres undefined)	inactive
CC1=C(C#N)C(c2ccoc2)C(C(=O)OCc2ccccc2)=C(N)S1 (centres undefined)	inconclusive [inhibitor, single point]
O=C(O)c1cc2cc(Cc3cccnc3)ccc2o1	inactive
CCN(CCO)Cc1cc(=O)oc2c(C)c(C)ccc12	inconclusive [inhibitor, single point]
COC(=O)c1c(NC(=O)CSc2nncs2)sc2c1CCCCC2	inconclusive [inhibitor, single point]

SMILES	Potency
O=C(CSc1nnnn1-c1ccccc1)CC(=O)Nc1ccc(Cl)cc1	inactive
O=S(=O)(Nc1cccnc1)c1cccc2cccnc12	inactive
CCOc1ccc2nc(NC(=O)CSc3nc4ccccc4c(=O)n3Cc3ccco3)sc2c1	inconclusive [inhibitor, single point]
CCN1CCN(C(c2cccs2)C(C)NC(=O)c2cccc(OC)c2OC)CC1 (centres undefined)	inconclusive [inhibitor, full curve, poor fit]
Cc1ccc2c(c1)N(C(=O)CSc1nncn1C)C(C)(C)c1ssc(=S)c1-2	inconclusive [inhibitor, partial curve]
O=c1sc(Nc2ccccc2)nc2ccsc12	inconclusive [inhibitor, partial curve]
Cc1ccc(C(=O)Nc2nnn(C)n2)cc1	inactive
O=Nc1ccc2oc(=O)ccc2c1	inconclusive [inhibitor, partial curve]
S=c1[nH]ncn1/N=C/c1ccc(Br)cc1	inconclusive [inhibitor, partial curve]
CCOC(=O)c1c(C#N)c(SCC(=O)Nc2ccc(OC)cc2)nc2c1CN(CC)CC2	inconclusive [inhibitor, partial curve]
Cc1ccc(C2C3=C(CC(C)(C)CC3=O)Nc3[nH]c(=S)[nH]c(=O)c32)cc1 (centres undefined)	active: 20 µM
COC(=O)c1ccccc1NC(=O)CSc1nnc(-c2cccc(NC(C)=O)c2)n1C	inconclusive [inhibitor, single point]
CCCCCCCC/C=C\CCCCCCCC(=O)N(CCO)CCO	active: 1.26 µM
O=C(c1ccco1)N1CCC2(CC1)CCN(c1cccc(-c3ccccc3)c1)CC2	inactive
COc1cc2c(cc1OC)-c1nncn1C(C)(C)C2	inactive
CSc1nnc(-c2ccco2)c(-c2ccco2)n1	active: 2 µM
Cc1cc(C(=O)CSc2nc3ccccc3o2)c(C)n1C1CC1	inconclusive [inhibitor, single point]
O=C1CC(c2ccc3c(c2)OCO3)CN1 (centres undefined)	inactive
O=C1C=CC(=O)c2c(O)c(Cl)c(Cl)c(O)c21	active: 1 µM
CCC(=O)N1CCc2cc(S(=O)(=O)NCCC(=O)N3CC=C(c4ccccc4)CC3)ccc21	inconclusive [inhibitor, single point]
Cc1cc(O)cc(C)c1Cl	inconclusive [inhibitor, single point]
O=C(O)c1cc(=O)c2c(Cl)cc(Cl)cc2[nH]1	inconclusive [inhibitor, single point]
CCC(=O)N[C@@H]1Cc2ccccc2[C@@H](c2ccccc2)C1	inconclusive [inhibitor, full curve]
Cc1nn(-c2ccccc2)c2[nH]c(=O)c(CNc3ccc(N4CCOCC4)cc3)cc12	active: 12.6 µM
